Experimental data: PubChem BioAssay AID1963576 (National Center for Advancing Translational Sciences (NCATS), 2024)
The campaign covered roughly 46,000 compounds. About 60 (0.1%) were called active. Another 3% or so got no clear call; they are omitted. Calls follow the shape of the dose curve; as a rule, active = well fitted inhibition curve with a large enough effect; inconclusive = small, poorly fitted or top-dose-only effect; inactive = no such curve, though single readings can be large or run the other way. Some of the results follow.

Assay: Primary qHTS assay for Inhibitors of ovarian cancer metastasis using an organotypic tumor microenvironment (TME) model. Also: nearly all actives have a fitted effect of over 65% in size.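 As to activity change, negative = inhibition: plate controls were DMSO wells for no effect and tomatine positive control wells for full effect.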
Conditions: SKOV3ip1-GFP adhesion/invasion on 3D omental model, fluorescence; series mostly up to 45.8 µM; activity change, negative = inhibition: at the top concentration
Summary of the method: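 A 3D layer of primary human omental fibroblasts, mesothelial cells, fibronectin and collagen I, grown 48 hr, received SKOV3ip1-GFP cells in serum-free medium plus compounds at 0.36-46 umol/L. After 2 hr RT and 16 hr 37 C, fixed adherent GFP cells were counted; normalized to DMSO and tomatine.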

Activity change, negative = inhibition, inactive:
CCc1ccc(C2C(C(=O)Nc3ccccc3)=C(C)Nc3c(C(=O)Nc4ccc(C)cc4)cnn32)cc1 (configuration not stated) -4.86%
O=C(c1ccco1)N(Cc1cccnc1)c1nc2ccc(F)cc2s1 -7.67%
Cc1ccc(-n2c(CCC(=O)O)ccc2-c2cccs2)cc1C 3.73%
O=C(CSc1nccn1Cc1ccco1)Nc1cccc(F)c1 -0.409%
CCc1c(C)c2ccc3c(c2oc1=O)CN(Cc1ccccc1)CO3 9.17%
COc1ccc(OCC(=O)Nc2nnc(S(=O)(=O)N3CCCCCC3)s2)cc1 9.42%
CCOC(=O)C1CCN(C(c2ccccc2)c2c(O)cc(C)n(Cc3ccco3)c2=O)CC1 (configuration not stated) 7.57%
O=C(Nc1ccc(C(F)(F)F)cc1)C1CCC(CNS(=O)(=O)c2cccc3nsnc23)CC1 (configuration not stated) -3.81%
COc1cc(C2CC(=O)Nc3c2c(=O)[nH]c2nc4ccccc4n32)ccc1O (configuration not stated) -28.2%
COc1ccc(-c2nn3c(-c4ccc(OC)cc4)nnc3c3ccccc23)cc1 21.4%
CCc1nn2c(=O)cc(COC(=O)c3ccccc3NC(=O)COc3ccccc3C)nc2s1 -37.7%
CC1(C)C(=O)N(CC(=O)Nc2ccc(Cl)cc2)c2ccccc21 1.1%
CCC(C)NC(=O)c1cc2c(Cl)nc3ccc(C)cc3c2s1 (configuration not stated) -0.134%
CC1CCCN(c2csc3ccc(F)cc3c2=O)C1 (configuration not stated) 3.88%
CCc1ccccc1NC(=O)C1=CC(c2ccc(OC)c(OC)c2)=NS(=O)(=O)N1C 4.32%
CCOC(=O)c1ccc(-n2c(N)c(C(=O)OC)c3nc4ccccc4nc32)cc1 1.26%
Cc1ccc(NC(=O)Cn2c(=O)n(Cc3ccccc3)c(=O)c3c(C)c(C)sc32)c(C)c1 2.22%
CCCOc1ccc(C(=O)Nc2cccc(-c3nc4ccccc4[nH]3)c2)cc1 -16.9%
O=C(CN1C(=O)COc2ccc(S(=O)(=O)N3CCCCC3)cc21)NCc1ccc(F)cc1 -11%
O=C(Nc1ccc(N2CCC(N3CCCCC3)CC2)c(C(=O)O)c1)c1ccc(Br)cc1 1.35%
CCOc1cc(C2C(C(=O)OC)=C(C)NC3=C2C(=O)c2ccccc23)ccc1O (configuration not stated) -5.14%
CC1(C)O[C@H]2[C@@H](O1)[C@@H](C(=O)Nc1ccccc1O)O[C@@H]1OC(C)(C)O[C@@H]12 -0.29%
CCC(CC)C(=O)Nc1cccc(-c2nc3cccnc3s2)c1C 6.3%
CCOc1ccc(CNC(=O)C2CCCN(c3nc4c(C)cc(C)cc4s3)C2)cc1 (configuration not stated) -3.22%
COc1ccc(-n2nc3ccc(NC(=O)c4cc5ccccc5o4)cc3n2)cc1Cl 5.02%
Cc1ccc(C(C)C)c(OCC(=O)Nc2c(C(=O)c3ccccc3)oc3ccccc23)c1 -1.44%
Cc1cccc(/C=C/c2onc(C)c2S(=O)(=O)N2CCC(C(=O)N3CCC(C)CC3)CC2)c1 -4.61%
CCOc1ccccc1NC(=O)c1c(C)cc(C)nc1SCC(=O)c1cccc(OC)c1 4.79%
O=C(Nc1cccc(C(=O)N2CCCCC2)c1)c1nsc2ccccc12 1.06%
CCc1ccc(-n2nc(C)c3c(C(=O)Nc4cccc(C(F)(F)F)c4)cc(C)nc32)cc1 1.01%
Cc1ccc(CN2C(=O)c3ccccc3C2C(=O)NC2CCCCCC2)cc1 (configuration not stated) 17.3%
Cc1ccc(NC(=O)c2sc3ccccc3c2Cl)cc1 8.64%
Cc1cccn2c(=O)c(/C=C(\C#N)c3nc4ccccc4n3C)c(Oc3ccc(Br)cc3)nc12 1.56%
O=C(CN1CCN(c2ccc(Cl)cc2)CC1)Nc1ccc(F)cc1F -10.7%
Cc1ccc(NC(=O)CCCn2nc(C)c3c(C)n(-c4ccccc4)nc3c2=O)cc1Cl -2.04%
Cc1cccc(C)c1Nc1c(-c2ccsc2)nc2ccccn12 -6.59%
COc1ccc(CNC(=O)CCn2nc(C)c3c(C)n(-c4ccccc4)nc3c2=O)cc1OC 15.3%
CCOCCCn1c(=N)c(S(=O)(=O)c2ccc(C)cc2)cc2c(=O)n3cccc(C)c3nc21 -0.873%
COc1ccc(CNC(=O)C(=O)NCC(c2cccs2)S(=O)(=O)c2ccc(F)cc2)cc1 (configuration not stated) -2.51%
CN1C(=O)c2ccccc2Sc2ccc(NC(=O)Nc3ccccc3F)cc21 11.6%
CCOc1ccc(N(CC(=O)Nc2ccc(F)cc2F)S(=O)(=O)c2c(C)[nH]c(=O)[nH]c2=O)cc1 -18.1%
CC(=O)N1CCCc2cc(S(=O)(=O)N(C)CC(=O)Nc3ccc(F)cc3Cl)ccc21 -2.61%
O=C(NCC(c1ccc2c(c1)OCO2)N1CCN(c2ccccc2)CC1)c1ccccc1F (configuration not stated) -4.8%
Cc1ccc(NC(=O)c2c(Nc3ccccc3C)sc(C(=O)c3ccccc3)c2N)cc1 3.87%
Cc1ccc2c(c1)sc1nc(=O)n(-c3ccc(Cl)cc3)c(=O)n12 -0.252%
CN1CCN(CCCNC(=O)Cn2c(-c3cccs3)cc3ccccc32)CC1 14.2%
COc1ccc(OC)c(C2CC(=O)c3c([nH]c(C(=O)OC4CCC(C)CC4)c3C)C2)c1 (configuration not stated) -15.1%
Cc1ccc(-c2cc(N)n3nc(-c4ccc(C)cc4)cc3n2)cc1 4.47%
CCOC(=O)c1noc2ncnc(N(CCC(=O)OC)c3ccccc3)c12 9.02%
Cc1c(-c2nsc(NC(=O)c3ccc(Cl)cc3)n2)nnn1-c1ccc(C(C)C)cc1 -2.26%
COc1ccc(NC(=O)c2cnn(-c3ccc(C)cc3)c2-n2cccc2)cc1Cl -7.02%
CC(=O)c1ccc(N2CCN(c3nc4c(S(=O)(=O)c5ccccc5)nnn4c4ccc(Cl)cc34)CC2)cc1 -7.59%
COc1ccc(-c2cc(C)no2)cc1S(=O)(=O)NCc1ccc(OC(C)C)cc1 -7.9%
COc1cc(NC(=O)c2cc(-c3ccc4c(c3)OCO4)on2)cc(OC)c1OC -12.1%
CC(CC(=O)NCc1ccc(Cl)cc1)CC1=NS(=O)(=O)c2ccccc2N1 (configuration not stated) -5.13%
Cc1cccc(Nc2nnc(-n3nc(C)cc3C)c3ccccc23)c1 20.5%
CCc1cccc2c(-c3ccccc3)nc(SCC(=O)Nc3ccccc3)nc12 -9.93%
COc1ccc(N2CCN(CCCNC(=O)C3COc4ccc(OC)cc4C3)CC2)cc1 (configuration not stated) 8.48%
Cc1cc(Br)ccc1NC(=O)c1cc2c(=O)n(C)c3cc(Cl)ccc3c2s1 -2.39%
COc1ccc(NC(=O)C2=C(C)Nc3nc(SCc4ccccc4C)nn3C2c2ccc(Br)cc2)cc1 (configuration not stated) -0.276%
CSc1ccc(CCNc2ncnc3onc(C)c23)cc1 4.24%
Cc1cc(C)c2oc(C(=O)N(Cc3ccc(F)cc3)C3CCS(=O)(=O)C3)cc(=O)c2c1 (configuration not stated) 10.3%
CN(C(=O)c1cc(-c2ccccc2O)on1)c1ccccc1 16.8%
COc1ccc(S(=O)(=O)N2CCC(c3ccncc3)CC2)cc1Cl -15.5%
COc1ccccc1NC(=O)c1c(NCc2sccc2C)sc2c1CCCCC2 -0.492%
CN(C(=O)Cn1c(=O)n(CCCS(=O)(=O)C2CCCCC2)c(=O)c2ccccc21)c1ccccc1 -3.69%
COc1ccc(C(CNC(=O)COc2ccc(C)cc2)N2CCCCC2)cc1 (configuration not stated) -12.1%
CCOc1ccc(/C=C(\C#N)c2nc(-c3cc4ccccc4oc3=O)cs2)c(OCC)c1 -7.61%
CCOC(=O)c1c(C)oc2ccc(N(C(=O)Oc3ccccc3)S(=O)(=O)c3ccccc3)cc12 0.418%
Cc1cc(C)cc(N(CC(=O)Nc2cccc(C)c2C)S(=O)(=O)c2c(C)[nH]c(=O)[nH]c2=O)c1 -6.47%
COc1ccc(Cl)cc1NC(=O)Cn1c2ncccc2c(=O)n1-c1ccc(C)c(C)c1 -24.9%
COc1ccc(C2C=C(c3ccccc3)Nc3nc(NC(=O)c4ccc(C)cc4)nn32)cc1 (configuration not stated) 0.205%
CCOc1cc(-c2nc(-c3ccc(-c4ccc(C)cc4)nc3OC)no2)cc(OCC)c1OCC 6.49%
O=C(Cn1c(=O)oc2ccccc21)NCc1cccc(Cl)c1 2.49%
COc1ccc2c(CNCc3ccc(C)o3)c(C(=O)O)n(Cc3ccccc3)c2c1 -2.6%
Cc1ccc(NC(=O)Nc2nnc(N(C)Cc3ccccc3)s2)cc1 -4.49%
Cc1cc(NS(=O)(=O)c2ccc(NC(=O)COc3ccc(Cl)cc3)cc2)nc(C)n1 3.31%
CCOC(=O)c1ccc(NC(=O)c2cc3cc(C)ccc3n2C)cc1 1.97%
O=c1ccn([C@@H]2O[C@H](CO)[C@H](O)[C@@H]2F)c(=O)[nH]1 2.31%

outcome, inactive:
COc1ccc(OC(=O)c2nc(SCc3ccc(C)cc3)ncc2Cl)cc1
CCC(Cc1ccccc1)NC(=O)c1ccc2nc(N3CCC(C)CC3)sc2c1 (configuration not stated)
Cc1ccc(-c2nc(C)c(CCNC(=O)C(=O)Nc3ccc4c(c3)OCCO4)s2)cc1
CCc1ccc(-c2nn(CC(=O)NC3CCCC3)c3c2cnc2ccc(C)cc23)cc1
COc1ccccc1-c1nc(S(=O)(=O)c2ccc(Cl)cc2)c(N2CCCCCC2)o1
Cc1cc(O)c(C(c2ccc(F)cc2)N2CCCCC2)c(=O)n1Cc1ccco1 (configuration not stated)
Cc1cc(Nc2cccc(C(F)(F)F)c2)nc2ccc(NC(=O)c3ccc(N(C)C)cc3)cc12
COc1ccc(CN(CCC(c2ccc3c(c2)OCO3)c2ccccc2OC)C(C)=O)cc1 (configuration not stated)
CCOC(=O)c1ccc(OCC2c3cc(OC)c(OC)cc3CCN2C(=O)Cc2ccc(F)cc2)cc1 (configuration not stated)
CCOC(=O)c1noc2ncnc(Nc3ccc(C)c(F)c3)c12
COc1ccc(S(=O)(=O)c2cn(C)c3cc(N4CCCCC4)c(F)cc3c2=O)cc1
COc1ccc2c(CNCc3ccc(Cl)cc3)c(C(=O)O)n(Cc3ccccc3C)c2c1
O=C(NC1CC(=O)N(c2ccccc2)C1)C1CCCCC1 (configuration not stated)
Cc1cc(C)cc(NC(=O)CSc2nccn2-c2ccccc2)c1
Cc1cccc(NC(=O)C2CCN(S(=O)(=O)c3cccc4nsnc34)CC2)c1C
CCN1CCN(C(c2ccc(OC)cc2)c2c(O)cc(C)n(CCOC)c2=O)CC1 (configuration not stated)
Cc1cccc(CCNC(=O)c2cc3ccccn3n2)c1
Cc1ccc(-n2nc3c(=O)n(CC(=O)Nc4ccccc4F)nc(C)c3c2C)c(C)c1
